Experimental data published in the supplement of paper PMC8728848.
The other results are listed elsewhere or left out.

Tests used:
Assay in all cases: glycan array binding signal (z-score within array); higher = stronger binding
Conditions in all cases: glycan notation: IUPAC condensed, linker removed
[1] = molecular target: GlcNAc(b1-3)Gal(b1-4)GlcNAc(b1-3)Gal(b1-4)GlcNAc(b1-3)GalNAc
Summary of the method: (§1)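 Glycan array data came from 3228 arrays in the Consortium for Functional Glycomics database, and only arrays with an available protein sequence were kept. Glycan names were put into IUPAC-condensed notation, and columns mapping to the same glycan were averaged. The binding signal is a within-array Z-score, averaged across arrays of one protein sequence run at different concentrations or buffers and across linkers. A negative Z-score can be read as non-binding.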

[2] = molecular target: GlcNAc(b1-3)Gal(b1-4)GlcNAc(b1-3)GalNAc
Summary of the method: as §1

[3] = molecular target: GlcNAc(b1-3)Gal(b1-4)GlcNAc(b1-3)[GlcNAc(b1-3)Gal(b1-4)GlcNAc(b1-3)]GalNAc
Summary of the method: as §1

[4] = molecular target: GlcNAc(b1-3)Gal(b1-4)GlcNAc(b1-6)[Gal(b1-3)]GalNAc
Summary of the method: as §1

[5] = molecular target: GlcNAc(b1-3)Gal(b1-4)GlcNAc(b1-6)[GlcNAc(b1-3)Gal(b1-3)]GalNAc
Summary of the method: as §1

[6] = molecular target: GlcNAc(b1-3)Gal(b1-4)GlcNAc(b1-6)[GlcNAc(b1-3)]Gal(b1-4)GlcNAc
Summary of the method: as §1

GlcNAc(b1-3)GalNAc = molecular target: GlcNAc(b1-3)GalNAc
Summary of the method: as §1

GlcNAc(b1-3)Man = molecular target: GlcNAc(b1-3)Man
Summary of the method: as §1

[7] = molecular target: GlcNAc(b1-3)[GlcNAc(b1-4)][GlcNAc(b1-6)]GlcNAc
Summary of the method: as §1

[8] = molecular target: GlcNAc(b1-3)[GlcNAc(b1-6)]Gal(b1-4)GlcNAc
Summary of the method: as §1

[9] = molecular target: GlcNAc(b1-3)[GlcNAc(b1-6)]GalNAc
Summary of the method: as §1

[10] = molecular target: GlcNAc(b1-4)Gal(b1-4)GlcNAc
Summary of the method: as §1

GlcNAc(b1-4)GlcNAc = molecular target: GlcNAc(b1-4)GlcNAc
Summary of the method: as §1

[11] = molecular target: GlcNAc(b1-4)GlcNAc(b1-4)GlcNAc
Summary of the method: as §1

[12] = molecular target: GlcNAc(b1-4)GlcNAc(b1-4)GlcNAc(b1-4)GlcNAc(b1-4)GlcNAc
Summary of the method: as §1

[13] = molecular target: GlcNAc(b1-4)GlcNAc(b1-4)GlcNAc(b1-4)GlcNAc(b1-4)GlcNAc(b1-4)GlcNAc
Summary of the method: as §1

[14] = molecular target: GlcNAc(b1-4)[GlcNAc(b1-6)]GalNAc
Summary of the method: as §1

[15] = molecular target: GlcNAc(b1-6)Gal(b1-4)GlcNAc
Summary of the method: as §1

GlcNAc(b1-6)GalNAc = molecular target: GlcNAc(b1-6)GalNAc
Summary of the method: as §1

[16] = molecular target: GlcNAc6S(b1-3)Gal(b1-4)GlcNAc
Summary of the method: as §1

Kdn(a2-3)Gal(b1-3)GalNAc = molecular target: Kdn(a2-3)Gal(b1-3)GalNAc
Summary of the method: as §1

Kdn(a2-3)Gal(b1-3)GlcNAc = molecular target: Kdn(a2-3)Gal(b1-3)GlcNAc
Summary of the method: as §1

Kdn(a2-3)Gal(b1-4)Glc = molecular target: Kdn(a2-3)Gal(b1-4)Glc
Summary of the method: as §1

Kdn(a2-3)Gal(b1-4)GlcNAc = molecular target: Kdn(a2-3)Gal(b1-4)GlcNAc
Summary of the method: as §1

[17] = molecular target: Kdn(a2-3)Gal(b1-4)[Fuc(a1-3)]GlcNAc
Summary of the method: as §1

Kdn(a2-6)Gal(b1-4)GlcNAc = molecular target: Kdn(a2-6)Gal(b1-4)GlcNAc
Summary of the method: as §1

[18] = molecular target: Man(a1-2)Man(a1-2)Man(a1-3)Man
Summary of the method: as §1

[19] = molecular target: Man(a1-2)Man(a1-2)Man(a1-6)[Man(a1-3)]Man
Summary of the method: as §1

Man(a1-2)Man(a1-3)Man = molecular target: Man(a1-2)Man(a1-3)Man
Summary of the method: as §1

[20] = molecular target: Man(a1-2)Man(a1-3)[Man(a1-2)Man(a1-6)]Man
Summary of the method: as §1

[21] = molecular target: Man(a1-2)Man(a1-3)[Man(a1-2)Man(a1-6)]Man(a1-6)[Man(a1-2)Man(a1-2)Man(a1-3)]Man
Summary of the method: as §1

[22] = molecular target: Man(a1-2)Man(a1-3)[Man(a1-2)Man(a1-6)]Man(a1-6)[Man(a1-2)Man(a1-2)Man(a1-3)]Man(b1-4)GlcNAc(b1-4)GlcNAc
Summary of the method: as §1

[23] = molecular target: Man(a1-2)Man(a1-3)[Man(a1-6)]Man(a1-6)[Man(a1-2)Man(a1-3)]Man(b1-4)GlcNAc(b1-4)GlcNAc
Summary of the method: as §1

[24] = molecular target: Man(a1-2)Man(a1-6)[Man(a1-3)]Man(a1-6)[Man(a1-2)Man(a1-2)Man(a1-3)]Man
Summary of the method: as §1

[25] = molecular target: Man(a1-2)Man(a1-6)[Man(a1-3)]Man(a1-6)[Man(a1-2)Man(a1-2)Man(a1-3)]Man(b1-4)GlcNAc(b1-4)GlcNAc
Summary of the method: as §1

Man(a1-3)[Man(a1-6)]Man = molecular target: Man(a1-3)[Man(a1-6)]Man
Summary of the method: as §1

[26] = molecular target: Man(a1-3)[Man(a1-6)]Man(a1-6)[Man(a1-2)Man(a1-3)]Man(b1-4)GlcNAc(b1-4)GlcNAc
Summary of the method: as §1

B1: PX14343H-pdi-506-26-506 (Parabacteroides distasonis) (protein)
chain: QPTGTMTTDSKLTSKESALALTNSAYLKNTVFNKMTPGWGCNTILLLEYMTGKATSENSQSNYKDFQDLLVSDRSLYIEDWWQDCYAGIANCNLALQKLGEFENLDASLVNGYMAEVKFMRALYYFYLVRIFGDVPKITTVQSELGELQVSRAPVKEIYDEIIIPDLLEAEQSDLAFSDHTGRVSMGAVKALLADVYLTYAGYPLQGGKSYYAESAKRSLEVIKSNEYTLFTDYESLRLPSQNNKGEFIYQVQFSLNKRHNESVRIFLPSRSGISAYDLEYGSLIPTKEFVESFEKGDKRTEEKQYFFTNYKGHPSKFSPGAAELEFMDLNGYYIYKFFDQVAVDNTAKSDLNWSVYRYTDVLLMYAEAQVNADGTPNQQSIDIVNQIRGRAGLAPFKQTNASAFLEEVWDQRYFDLCYENKMWFDMLRTRKIRDDKSGEYVDFIGYKTNWGKVYTETQLLFPIPLSERQANPNLTQNQGY
glycan array binding signal (z-score) [1]: -0.479
glycan array binding signal (z-score) [2]: -0.331
glycan array binding signal (z-score) [3]: -0.202
glycan array binding signal (z-score) [4]: -0.197
glycan array binding signal (z-score) [5]: -0.354
glycan array binding signal (z-score) [6]: -0.42
glycan array binding signal (z-score) (GlcNAc(b1-3)GalNAc): -0.326
glycan array binding signal (z-score) (GlcNAc(b1-3)Man): -0.389
glycan array binding signal (z-score) [7]: -0.185
glycan array binding signal (z-score) [8]: -0.252
glycan array binding signal (z-score) [9]: -0.311
glycan array binding signal (z-score) [10]: -0.461
glycan array binding signal (z-score) (GlcNAc(b1-4)GlcNAc): -0.378
glycan array binding signal (z-score) [11]: -0.411
glycan array binding signal (z-score) [12]: -0.431
glycan array binding signal (z-score) [13]: -0.409
glycan array binding signal (z-score) [14]: 0.217
glycan array binding signal (z-score) [15]: -0.323
glycan array binding signal (z-score) (GlcNAc(b1-6)GalNAc): -0.314
glycan array binding signal (z-score) [16]: -0.337
glycan array binding signal (z-score) (Kdn(a2-3)Gal(b1-3)GalNAc): -0.106
glycan array binding signal (z-score) (Kdn(a2-3)Gal(b1-3)GlcNAc): -0.225
glycan array binding signal (z-score) (Kdn(a2-3)Gal(b1-4)Glc): -0.024
glycan array binding signal (z-score) (Kdn(a2-3)Gal(b1-4)GlcNAc): -0.438
glycan array binding signal (z-score) [17]: -0.169
glycan array binding signal (z-score) (Kdn(a2-6)Gal(b1-4)GlcNAc): -0.278
glycan array binding signal (z-score) [18]: -0.281
glycan array binding signal (z-score) [19]: -0.422
glycan array binding signal (z-score) (Man(a1-2)Man(a1-3)Man): -0.483
glycan array binding signal (z-score) [20]: -0.49
glycan array binding signal (z-score) [21]: -0.4
glycan array binding signal (z-score) [22]: -0.329
glycan array binding signal (z-score) [23]: 1.22
glycan array binding signal (z-score) [24]: -0.339
glycan array binding signal (z-score) [25]: -0.277
glycan array binding signal (z-score) (Man(a1-3)[Man(a1-6)]Man): -0.474
glycan array binding signal (z-score) [26]: 0.684
